± gives the standard deviation of the averaged measurements. Whole data set: some 33,000 sequences, median “E-score (dimensionless, -0.5 to 0.5)” near -0.046, cut for the highest 2% near 0.36. Some of the results follow.
Tested on: T1, SpTbr T-box DNA-binding domain (GST fusion)
T1 sequence: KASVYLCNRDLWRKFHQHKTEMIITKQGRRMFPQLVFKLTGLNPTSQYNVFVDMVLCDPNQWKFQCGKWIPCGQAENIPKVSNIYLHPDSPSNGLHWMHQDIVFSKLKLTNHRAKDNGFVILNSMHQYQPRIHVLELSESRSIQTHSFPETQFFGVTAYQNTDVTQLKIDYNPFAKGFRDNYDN
Assay: PBM E-score of 8-mer (E-score (dimensionless, -0.5 to 0.5)); Tbr is Tbrain of the sea star Patiria miniata (Pm) or the sea urchin Strongylocentrotus purpuratus (Sp); higher = stronger binding preference; most listed sequences are background and not binding sites
Conditions: the construct has about 5 more residues each side
Method in brief: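 Using the Universal PBM Analysis Suite, every ungapped 8-mer received an enrichment E-score averaged over duplicate arrays. Probe intensities came from double-stranded Universal Agilent oligonucleotide arrays incubated with 200 nM GST-fused Tbr T-box DNA-binding domain in PBS (pH 7.5). That protein was expressed in BL21 E. coli at 20 °C and purified by glutathione affinity chromatography.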

Sequence	PBM E-score of 8-mer
AGGGTTAA	-0.126 ± 0.041
AATTCGGG	-0.213 ± 0.043
AAAGCCAG	-0.154 ± 0.021
AAAACGCA	-0.16 ± 0.07
ACATTTGC	0.00351 ± 0.022
ACAGAATG	0.00951 ± 0.021
ACAACCCG	0.159 ± 0.0093
GGCCGCTA	-0.0198 ± 0.018
ATAGTATC	-0.124 ± 0.037
AATGGACC	-0.2776 ± 0.0022
AGCAAGTA	-0.0132 ± 0.07
ACCTGATG	0.0514 ± 0.019
CATGACAA	0.224 ± 0.0033
GAGAATAC	-0.0812 ± 0.016
CCGCATGA	-0.203 ± 0.023
CCCCGTCC	-0.203 ± 0.015
AAGCCGCG	0.0748 ± 0.058
CAGCCAGG	-0.0906 ± 0.022
ACGCCATA	-0.0851 ± 0.0062
CCTCTAGC	0.169 ± 0.061
ATACCCAT	-0.206 ± 0.0075
CTTTGTAC	-0.111 ± 0.036
AACACGTG	0.36 ± 0.008
ACTGCCAG	-0.133 ± 0.072
GGTCTTAA	-0.0355 ± 0.054

Sequence	PBM E-score of 8-mer
CTAGGCCA	-0.041 ± 0.032
TCTTGAAA	-0.00537 ± 0.069
TGACTTAA	0.021 ± 0.066
ACACAAGC	0.103 ± 0.03
ACACTACT	0.0839 ± 0.024
CGAATCCC	-0.0359 ± 0.1
AAATTCAA	-0.0949 ± 0.042
CATCCTAA	-0.185 ± 0.033
AGTGCCTA	0.0376 ± 0.0082
ACTGCGAG	0.17 ± 0.033
AATTTGGG	-0.194 ± 0.017
ATCCCAAT	-0.172 ± 0.042
AGAGCGCA	-0.0186 ± 0.032
AACTCGAC	0.195 ± 0.031
AAGAGGGT	-0.096 ± 0.028
AGTCAATC	-0.203 ± 0.025
CTAGCATC	-0.0594 ± 0.067
ACAACTGT	0.216 ± 0.025
CGGGACGC	-0.0224 ± 0.019
AAGAGCTC	-0.165 ± 0.046
ACCCGATC	0.0864 ± 0.06
AAGTGCAG	0.206 ± 0.011
CACCTAGG	0.392 ± 0.012
CTCTCTAA	-0.0322 ± 0.062
ATCTCCTA	-0.238 ± 0.029

Sequence	PBM E-score of 8-mer
CTGAGCCC	-0.253 ± 0.044
ACTACACC	0.282 ± 0.028
AGGTCTCC	-0.241 ± 0.045
CAATAGAA	-0.0248 ± 0.1
ACGTGCAC	0.00032 ± 0.1
GCCTGAGC	-0.136 ± 0.013
ACTACGGG	-0.31 ± 0.036
GTGGCAAA	0.309 ± 0.024
ATGGGGGG	-0.172 ± 0.0088
GAGCATTA	-0.0462 ± 0.063
AGGAACGC	-0.0105 ± 0.016
CTTTCGGA	-0.063 ± 0.024
AACTTTAG	-0.19299 ± 7.1e-06
AATACACG	0.00776 ± 0.0082
AGCCCTCC	-0.206 ± 0.055
CGAGGCGA	0.211 ± 0.034
AGGCGGAC	-0.166 ± 0.018
CGACATGC	0.0671 ± 0.079
AGTTACGA	-0.134 ± 0.01
GCTGAAGC	-0.146 ± 0.0035
CTCTCTTC	-0.223 ± 0.042
AAGCTCAA	-0.121 ± 0.027
GATATTAA	-0.113 ± 0.063
AGCGAGCG	0.154 ± 0.098
GATCTTAC	-0.204 ± 0.018

Sequence	PBM E-score of 8-mer
GACACGTC	0.333 ± 0.0087
CTTCAAGA	-0.314 ± 0.059
AGGCTTCG	-0.107 ± 0.099
ACGCTCCG	-0.0654 ± 0.0084
GATCTTAA	0.00541 ± 0.01
GCACGCGC	0.216 ± 0.095
ACGAGATC	0.0815 ± 0.024
ACTGGGCT	-0.25 ± 0.058
AGTAATTG	-0.134 ± 0.022
GTTAAGGA	-0.00874 ± 0.063
CTTGCCTA	-0.0392 ± 0.028
AGACTGAC	-0.154 ± 0.051
ATGTATAG	-0.168 ± 0.055
CACCGGCA	0.098 ± 0.047
CTGCGTCA	0.0398 ± 0.00065
AGTTCGTC	-0.0931 ± 0.018
ATTGCCTA	-0.174 ± 0.062
CGCGTCCC	0.0857 ± 0.045
CTTTGTGA	0.0945 ± 0.074
CCTTCTCA	0.0198 ± 0.088
AGCTTTGA	-0.239 ± 0.067
CGGAAGTC	-0.166 ± 0.062
ACCCGGCC	-0.136 ± 0.016
AAAGAGTA	-0.107 ± 0.13
CCTGAAAG	-0.253 ± 0.035

Sequence	PBM E-score of 8-mer
AGGCAACG	0.0612 ± 0.062
GATTGGTA	-0.15 ± 0.049
GACCCCTC	-0.00634 ± 0.066
GACCACAC	0.28 ± 0.038
GCGCGCGC	0.0386 ± 0.035
GGCCCTAC	-0.211 ± 0.065
CAGGGTAC	-0.0581 ± 0.078
CAGCCGGC	-0.0135 ± 0.023
AACCCGAT	0.0929 ± 0.049
AGAAGGCT	-0.0249 ± 0.022
GGGAGTGA	0.204 ± 0.0052
CCTGACCC	-0.133 ± 0.084
TACGGTAA	-0.0909 ± 0.058
CAGCGCTA	0.116 ± 0.045
CTAACCAA	-0.0774 ± 0.073
CCTCGAAG	-0.0399 ± 0.025
ATAAAGTC	-0.0715 ± 0.032
AGGTTATA	0.0561 ± 0.06
CCGTAGTA	-0.238 ± 0.043
GGCTTCAA	-0.0895 ± 0.031
ATACTGAT	-0.117 ± 0.0039
GCTGAACA	-0.132 ± 0.039
ACAAAATA	-0.00317 ± 0.0089
CGTGTAGC	0.0236 ± 0.011
CCGAACAG	-0.0871 ± 0.062

Sequence	PBM E-score of 8-mer
ACTCTAAC	-0.144 ± 0.026
GATGAATC	-0.024 ± 0.047
AGCCGCCC	-0.267 ± 0.033
CTATACTC	-0.118 ± 0.04
CTCGCGGC	0.17 ± 0.018
AATTCTTG	-0.0559 ± 0.075
AGTCGCAC	0.387 ± 0.0041
AGTGAGTG	0.124 ± 0.033
CGATTCCC	0.0184 ± 0.014
AACGACGC	0.196 ± 0.0023
ATCCCTTC	-0.198 ± 0.053
ACTCTCCA	-0.197 ± 0.012
CGCCCAAA	-0.143 ± 0.042
CAACCCGC	0.0581 ± 0.066
GCCAGTGA	-0.0539 ± 0.08
CGCTGAAC	-0.00722 ± 0.02
CCATAAAA	-0.237 ± 0.09
ACAATATG	0.11 ± 0.028
ACATCACC	0.126 ± 0.037
AACGCCTG	0.292 ± 0.006
CACTTACG	0.228 ± 0.06
CTTGAACC	-0.236 ± 0.042
AATATATT	-0.325 ± 0.025
TCACAGAA	0.129 ± 0.013
GACAGCCA	0.211 ± 0.0079

Sequence	PBM E-score of 8-mer
GCGGGCTA	-0.319 ± 0.093
GATTACTA	-0.14 ± 0.04
AAACCCCG	-0.0472 ± 0.019
ACGAGCAT	-0.0497 ± 0.081
CCGTACTA	-0.087 ± 0.016
CACTAGCG	0.139 ± 0.072
CCAGGGTA	-0.124 ± 0.031
CTTTGGAC	-0.00665 ± 0.022
CAAGCCTA	-0.141 ± 0.038
ATTCTCGG	-0.0511 ± 0.073
CAAGGTCC	-0.257 ± 0.041
AGCTTTCG	0.0665 ± 0.027
GCACAAGA	-0.0761 ± 0.12
TCCCGAGA	-0.0404 ± 0.043
GTCACCAC	0.306 ± 0.0096
ACCAACGA	0.102 ± 0.0046
ACGTTACG	-0.00872 ± 0.058
TATCCCAA	-0.193 ± 0.082
ACGACACG	0.226 ± 0.042
GTAACCCA	-0.131 ± 0.021
AGACTTAG	-0.0887 ± 0.022
ACTAAGAA	-0.181 ± 0.077
